Test results as given in PubChem BioAssay AID624417 (National Center for Advancing Translational Sciences (NCATS), 2012).
Several values for one entry are separate records, joined by “and”; a condition that tells them apart may be missing. Equal entries are not always repeated. About 6,400 (1.6%) of roughly 410,000 compounds were called active. Inconclusive results, whose numbers are uncertain, are shown with a selection of clear calls. Calls come from the whole dose curve; as a rule, active = well fitted inhibition curve with a large enough effect; inconclusive = small, poorly fitted or top-dose-only effect; inactive = no such curve, though single readings can be large or run the other way. A potency beside an inconclusive call is a rough fit, not a confirmed value.

molecular target: Glucagon-like peptide 1 receptor (Homo sapiens) (UniProt P43220); test: qHTS of GLP-1 Receptor Inverse Agonists (Inhibition Mode); settings: HEK293 GLP-1R CRE-luciferase, luminescence, 24 h, GLP-1R form is constitutively active; series mostly up to 38.3 µM; note: nearly all actives have a fitted effect of over 55% in size
Source text: The overall goal of this project was to develop a novel assay for discovering small molecule ligands for class B1 G protein-coupled receptors (GPCRs). Very few agonists (or inverse agonists in inhibition mode) with generally weak activity for this entire group of physiologically important receptors are known to date. To establish proof-of-principle that this critical bottleneck can be overcome with a suitable screening approach, our studies focused on the class B1 receptor for glucagon-like peptide-1 (GLP-1R), a potential therapeutic target for diabetes and neurodegenerative disease. The assay was developed using a cell-based functional readout. Toward this goal, stably transfected HEK293 cell clones were established that co-express (i) a cAMP-responsive luciferase reporter gene, and (ii) constitutively active GLP-1R that upon ligand interaction inhibit (inverse agonists) the luciferase activity. In addition, two control cell lines were developed: (i) one that express only the cAMP-responsive reporter gene to enable initial exclusion of GLP-1R independent effects of candidate probes; and (ii) one with the reported gene cloned with another constitutively active orphan receptor GPR119 to enable exclusion of GLP-1R independent inhibitor effects of candidate inverse agonists. To that end, this assay was optimized for 1536-well format and screened against the MLSMR. […] NIH Molecular Libraries Probe Production Network [MLPCN] NIH Chemical Genomics Center [NCGC] Grant: NS064851 PI Name: Martin Beinborn, Tufts Medical Center
Six ul of cell suspension (200 cells/uL in DMEM + 10% Nu serum + 1% pen-strep) is dispensed in a white solid 1536-well plate. The plates are incubated for 12 hours at 37 deg C at 5% CO2 followed by addition of 23 nL compounds. After 24 hr incubation at 37 deg C and 5% CO2, 3 uL of luciferase assay detection reagent is added. A luminescence read is obtained on the PerkinElmer Viewlux after 12 min incubation at room temperature.
Potency is the fitted concentration of half-maximal effect; tags give direction and shape of the fitted curve.

Chain of UniProt P43220 (P43220 whole entry, looked up): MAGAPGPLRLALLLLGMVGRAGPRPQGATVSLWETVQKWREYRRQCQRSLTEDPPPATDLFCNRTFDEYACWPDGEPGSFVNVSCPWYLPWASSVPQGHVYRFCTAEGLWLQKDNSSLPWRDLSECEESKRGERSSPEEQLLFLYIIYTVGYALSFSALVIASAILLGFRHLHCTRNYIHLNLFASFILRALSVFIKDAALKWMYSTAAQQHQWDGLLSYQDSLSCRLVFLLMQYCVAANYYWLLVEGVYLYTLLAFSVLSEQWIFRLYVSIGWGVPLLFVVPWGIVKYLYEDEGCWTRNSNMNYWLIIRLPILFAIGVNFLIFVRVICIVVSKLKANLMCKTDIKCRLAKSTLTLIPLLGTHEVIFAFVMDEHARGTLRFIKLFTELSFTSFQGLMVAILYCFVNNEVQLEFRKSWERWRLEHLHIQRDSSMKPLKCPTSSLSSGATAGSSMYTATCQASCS

Structure (SMILES) | Potency
CC1CCCCC1NC(=O)c1ccc2c(c1)OCCO2 (stereo not given) | inactive
CCOC(=O)CC1(NC(=O)c2cc(COc3cncc(Cl)c3)on2)CCCCC1 | inconclusive: 7.94 µM [inhibitor, partial curve, poor fit]
Cc1ccc(OCCCn2c(=O)oc3ccccc32)cc1 | inconclusive: 28.2 µM [inhibitor, single point]
COc1ccc(N2CCN(C(=O)COC(=O)c3oc4ccccc4c3C)CC2)cc1 | inconclusive: 10 µM [inhibitor, single point]
Cc1ccc(S(=O)(=O)N2CCCCC2CCNC(=O)C(=O)NCc2ccco2)cc1 (stereo not given) | inconclusive: 7.94 µM [inhibitor, partial curve, poor fit]
OCC1(Cc2ccccc2)CCN(Cc2ccc(C(F)(F)F)cc2)CC1 | inconclusive: 7.08 µM [inhibitor, partial curve, poor fit]
O=C(c1cc(-c2ccco2)on1)N1CCN(c2ccccc2)CC1 | inconclusive: 28.2 µM [inhibitor, single point]
NC(=S)N=Nc1c(O)n(Cc2ccc(F)cc2)c2ccccc12 | inconclusive: 2.82 µM [inhibitor, full curve, poor fit]
O=C(NC(=S)Nc1ccccc1O)c1ccc(-c2ccc(Cl)cc2)o1 | inconclusive: 28.2 µM [inhibitor, single point]
CCOc1ccc(Cc2n[nH]c(=S)n2Cc2ccccc2)cc1 | inconclusive: 11.2 µM [inhibitor, single point]
Fc1ccc(C(Nc2ccc(Cl)c(C(F)(F)F)c2)c2nnc(-c3ccccc3)o2)cc1 (stereo not given) | inconclusive: 11.2 µM [inhibitor, partial curve, poor fit]
O=C(Cn1c(=O)n(-c2ccc(Cl)cc2)c(=O)c2sc3ccccc3c21)NC1CCCCC1 | inactive
CSc1ccccc1NC(=O)CNCCCN1CCOCC1 | inactive
CC(C)(C)C(=O)N1N=C(c2cccc(NS(C)(=O)=O)c2)CC1c1cccs1 (stereo not given) | inconclusive: 28.2 µM [inhibitor, single point]
Cc1ccc(S(=O)(=O)N2[C@@H](CO)CO[C@H]2CC(=O)OCc2ccccc2)cc1 | inconclusive: 12.6 µM [inhibitor, single point]
Cc1cc(C)c(C)c(S(=O)(=O)N2CCN(C(=O)C3CCC3)CC2)c1C | inconclusive: 8.91 µM [inhibitor, partial curve, poor fit]
COC(=O)C(Cc1c[nH]c2ccccc12)NC(=O)C(=O)c1c[nH]c2ccccc12 (stereo not given) | inconclusive: 28.2 µM [inhibitor, single point]
Cn1c(=O)n(CCCOc2ccc(Cl)cc2)c2ccccc21 | inconclusive: 11.2 µM [inhibitor, partial curve, poor fit]
COC(=O)CSC1=C(C#N)C(c2cccc(F)c2)CC(=O)N1 (stereo not given) | inconclusive: 7.94 µM [inhibitor, partial curve]
COc1ccc2cc3cc(C(=O)NCCc4ccccc4)sc3nc2c1Cl | inactive

Structure (SMILES) | Potency
Cc1ccc(OCc2cc(C(=O)N(C)CCc3ccccn3)no2)cc1C | inconclusive: 10 µM [inhibitor, single point]
O=C(NCc1ccc(C(F)(F)F)cc1)C1CC(c2ccc(C(F)(F)F)cc2)=NO1 (stereo not given) | inconclusive: 11.2 µM [inhibitor, partial curve, poor fit]
O=C(O)c1ccc(Cl)c(S(=O)(=O)N(Cc2ccccc2)c2ccc(F)cc2)c1 | inconclusive: 17.8 µM [inhibitor, partial curve, poor fit]
CCN(CC)C(=O)Oc1ccc(Br)c2ccccc12 | inconclusive: 11.2 µM [inhibitor, partial curve, poor fit]
CCOC(=O)CNC(=S)n1ncnc1N | inconclusive: 10 µM [inhibitor, single point]
Cc1cccc(C)c1OCCOCCN1CCN(C)CC1 | inconclusive: 2.82 µM [inhibitor, partial curve, poor fit] and inconclusive: 5.62 µM [inhibitor, full curve, poor fit]
O=C(c1cccs1)N1C[C@H](n2cc(-c3ccc(F)cc3)nn2)[C@@H](O)C[C@@H]1c1ccc(Cl)cc1 | inconclusive: 7.08 µM [inhibitor, partial curve, poor fit]
OC(c1ccccc1)c1nc(-c2cccc(F)c2)cs1 (stereo not given) | inconclusive: 28.2 µM [inhibitor, single point]
COc1ccc(NC(=O)c2cc(C3CCCCN3S(=O)(=O)c3cccs3)on2)c(C)c1 (stereo not given) | inconclusive: 11.2 µM [inhibitor, single point]
CCOc1cc(C2C(C#N)=C(N)OC(C)=C2C(C)=O)c(Br)c(Br)c1OC(C)C (stereo not given) | inconclusive: 22.4 µM [inhibitor, partial curve, poor fit]
O=C(/C=C/c1cccc([N+](=O)[O-])c1)NCCSCc1ccccc1Cl | inconclusive: 25.1 µM [inhibitor, single point]
O=C(c1cccc(S(=O)(=O)N2CCCCCC2)c1)N1CCN(Cc2ccccc2)CC1 | inconclusive: 11.2 µM [inhibitor, single point]
Cc1cc(C)c(OCC(=O)NCC2COc3ccccc3O2)c(C)c1 (stereo not given) | inconclusive: 14.1 µM [inhibitor, single point]
Cc1ccc(C(=O)c2cn(Cc3ccccc3F)c3cc4c(cc3c2=O)OCO4)cc1 | inactive
Cc1ccc(OCCN2CCN(C(=O)CCC(=O)Nc3nnc(CC(C)C)s3)CC2)cc1 | inconclusive: 7.94 µM [inhibitor, partial curve, poor fit]
CCOC(=O)C(NCc1ccc(F)cc1)(NC(=O)c1ccccc1)C(F)(F)F (stereo not given) | inconclusive: 11.2 µM [inhibitor, single point]
C=CCn1c(-c2cnn(-c3ccccc3)c2N)n[nH]c1=S | inactive
Cc1ccccc1C(=O)c1c[nH]c(C(=O)N2CCN(c3ccccc3F)CC2)c1 | inconclusive: 31.6 µM [inhibitor, partial curve, poor fit]
CC1(C(=O)N2CCC(CO)(Cc3cccc(C(F)(F)F)c3)CC2)CC1 | inconclusive: 28.2 µM [inhibitor, single point]
O=C(Nc1ccc(Br)cc1)c1ccc(Br)c(S(=O)(=O)N2CCCCC2)c1 | inconclusive: 2 µM [inhibitor, partial curve, poor fit]

Structure (SMILES) | Potency
O=c1cc(N2CCCCC2)c(-c2ccccc2)nn1Cc1ccc(F)cc1 | active: 2 µM
Cc1cc(=O)oc(C)c1C(=O)OCC(=O)c1ccc(Br)cc1 | inconclusive: 0.447 µM [inhibitor, full curve, poor fit]
CC(C)(C)c1ccc(C2(C)NC(=O)N(CC(=O)NCc3cccs3)C2=O)cc1 (stereo not given) | inconclusive: 28.2 µM [inhibitor, single point]
Cc1ccc(N(CC(O)CN2CCCC2)S(=O)(=O)c2ccccc2)cc1 (stereo not given) | inconclusive: 5.62 µM [inhibitor, partial curve]
CCOC(=O)c1nnn(-c2nonc2N)c1-c1ccc(C)cc1 | inconclusive: 28.2 µM [inhibitor, single point]
COc1ccccc1OCc1cc(C(=O)N2CC3C[C@@H]4CC2C[C@H](C3)C4)no1 | inconclusive: 3.98 µM [inhibitor, partial curve, poor fit]
Cc1ccc(-n2nc3c(=O)n(CCCC(=O)NCc4ccc(F)cc4)nc(C)c3c2C)cc1 | inconclusive: 15.8 µM [inhibitor, single point]
Cc1cc(C)c(S(=O)(=O)NCC(c2ccco2)N2CCN(c3ccccc3)CC2)c(C)c1 (stereo not given) | inactive
O=S1(=O)CCOC[C@H](Cc2ccccc2)N1Cc1ccc(Cl)cc1 | inconclusive: 14.1 µM [inhibitor, partial curve, poor fit]
CC(C)n1cc(/C=C/c2cc[n+](C)cc2)c2ccccc21 | inconclusive: 3.55 µM [inhibitor, full curve, poor fit]
Cc1cc(C(F)(F)F)c2c(N)c(C(=O)Nc3c(Cl)cccc3Cl)sc2n1 | inconclusive: 28.2 µM [inhibitor, single point]
CC(O)(c1ccccc1)c1nc(-c2cc3ccccc3o2)cs1 (stereo not given) | inconclusive: 28.2 µM [inhibitor, single point]
COc1ccc(C)cc1N(C(=O)COc1cccc(F)c1)c1nc2ccccc2s1 | inconclusive: 1.41 µM [inhibitor, partial curve, poor fit]
CN(c1ccc(OCC(=O)N2CCCCC2)cc1)S(=O)(=O)c1cccs1 | inconclusive: 12.6 µM [inhibitor, single point]
NC(Cc1ccc(Cl)cc1)c1csc(NC(=O)NCC2CCCCC2)n1 (stereo not given) | inconclusive: 20 µM [inhibitor, single point]
Cc1cc(C)n(-c2ccc(C(=O)Nc3nnc(C)s3)cc2)n1 | inactive
O=S(=O)(Nc1ccc(-c2ccc(N3CCCCCC3)nn2)cc1)c1ccc(C(F)(F)F)cc1 | inconclusive: 10 µM [inhibitor, partial curve]
CCOc1cc(C(=O)N/N=C(\C)Cc2ccc(OC)cc2)cc(OCC)c1OCC | inconclusive: 28.2 µM [inhibitor, single point]
CCOC(=O)Cc1csc(NC(=O)c2cc(OC)cc(OC)c2)n1 | inconclusive: 2.82 µM [inhibitor, full curve]
C[C@H](CO)N1C[C@H](C)[C@@H](CN(C)C(=O)NC2CCCCC2)Oc2ccc(NC(=O)Nc3ccc(C(F)(F)F)cc3)cc2C1=O | inconclusive: 12.6 µM [inhibitor, single point]
